Among all 44,000 compounds or so, about 340 (0.77%) were called active. Another 5% or so got no clear call; they are omitted. The call rests on the fitted dose curve; in most records, active means well fitted inhibition curve with a large enough effect; inconclusive means small, poorly fitted or top-dose-only effect; inactive means flat fitted curve, though single readings scatter. The list shows a part of the results.
Test: Acumen qHTS Assay for Inhibitors of the mTORC1 Signaling Pathway in MEF (Tsc2-/-, p53-/-) Cells: Sytravon;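 further: plate controls were DMSO for no effect and rapamycin for full effect; nearly all actives have a fitted effect of over 50% in size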
Settings: phospho-rpS6 immunofluorescence/PI, 24 h; series mostly up to 38.3 µM; activity change, negative = inhibition: at the top concentration
Procedure, shortened: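 Cell-based qHTS: Tsc2-/- p53-/- MEF, 24 h cpd, 37 °C; fix/perm, anti-phospho-S6 Alexa-488 + PI; Acumen 488 nm scan; pS6/PI ratio, % positive cells; rapamycin 7.5 nM = inhibition ref; PI count = viability.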

Activity change, negative = inhibition, inactive:
Cc1ccc(Cl)cc1NC(=O)C1CCN(c2nnc(C)c3c(C)n(-c4ccccc4)nc23)CC1 0.444%, Cc1ccccc1Cn1nnc2c(=O)[nH]c(C3CCN(C(=O)c4ccc(F)cc4)CC3)nc21 1.05%, Cc1cc(C)c(Cn2c3ccccc3c3cnn(CC(=O)NCc4cccs4)c(=O)c32)c(C)c1 2.3%, CCC(C)NC(=O)CCCN1C(=O)CCn2nc(-c3cccn3C)cc21 (stereo not given) -6.1%, CCc1cccc(NC(=O)COC(=O)c2cn(CC)c3nc(C)ccc3c2=O)c1 -2.8%, CCCc1cc(=O)[nH]c(SCC(=O)N2CCN(c3ccccc3)CC2)n1 -2.16%, COc1ccc(CNC(=O)CSCc2nc(-c3ccccc3C)oc2C)cc1 -10.2%, COc1ccc(CNC(=O)c2ccc(-c3nc(CSc4ccccc4)c(C)o3)cc2)cc1OC -0.937%, CC(C)c1nn2c(=O)cc(COC(=O)c3ccc(NC(=O)COc4ccccc4)cc3)nc2s1 3.82%, COc1ccccc1C(=O)Nc1ccccc1OCc1cc(=O)n2c(C)csc2n1 -13.9%, COc1ccc(NC(=O)CN2C(=O)CCn3nc(-c4cccn4C)cc32)cc1Cl 3.11%, O=S(=O)(c1ccc(-c2cc(C(F)(F)F)on2)s1)N1CCN(c2ccccc2F)CC1 0.139%, CC(=O)Nc1nonc1-c1nnc(SCC(=O)Nc2ccc(C)cc2)n1-c1ccccc1 0%, CCOC(=O)c1sc2cccc(F)c2c1S(=O)(=O)NCc1ccccc1Cl -11.1%, O=C(CS(=O)(=O)c1cccc2nsnc12)N1CCN(c2cccc(Cl)c2)CC1 -0.17%, COc1ccc(-c2cc(-c3ccccc3)c(C#N)c(SCC(O)CS(=O)(=O)Cc3ccc(Cl)cc3)n2)cc1 (stereo not given) 8.13%, COc1cccc(N2CCN(C(=O)c3ccc(C)c(NC(=O)c4nsc5ccccc45)c3)CC2)c1 7.7%, COc1cc(SC)ccc1C(=O)Nc1ccc(S(=O)(=O)Nc2nccc(C)n2)cc1 -2.01%, Cc1ccc(C(c2sc3nc(-c4ccco4)nn3c2O)N2CCCC2)cc1 (stereo not given) -1.43%, Cc1ccc(N(CC(=O)NCCc2ccc(Cl)cc2)S(=O)(=O)c2c(C)noc2C)cc1 -18.7%, Cc1cccc(NC(=O)Cn2nnc(-c3nc(-c4ccncc4)no3)c2N)c1 -9.03%, COc1ccc(CN2CCc3c(c(=O)n4ncc(C(=O)N5CCN(c6ccccc6OC)CC5)c4n3C)C2)cc1 -11.9%, Cc1ccc(NC(=O)CN2C(=O)c3ccccc3Sc3ccc(C(=O)N4CCOCC4)cc32)cc1F -7.49%, CCc1ccc2nc(N(Cc3cccnc3)C(=O)c3ccc(C#N)cc3)sc2c1 -24.5%, Cc1ccc(N2CCN(C(=O)c3nn(C)c4c3CS(=O)(=O)c3ccccc3-4)CC2)c(C)c1 6.99%

From PubChem BioAssay AID493208 (National Center for Advancing Translational Sciences (NCATS), 2011)
